Experimental data: the RNAGym collection of RNA variant scans (doi:10.7554/elife.90254)
Read counts are not given, so values of variants with three or more changes are uncertain.

B1: OR4K15 (parent)
chain: GUUAACGGUCAUAGGCCAUGGAAACUAGGAGCACCAUUUCGCUGCCAGUGAAGAAAUGAACAAAGAAAAUCUGGGCCAGGCAGGCAUCAAAAGAAAUAGUCUUGCGCUCAACCAGAAAGUCUGUAAUCAUUUUAAGGGUA

Variants of: B1
Assay: self-cleavage, relative activity (ratio to wild type); higher = more cleavage; in vitro, sequencing; the parent is a self-cleaving ribozyme

Variant	self-cleavage
GUUAACGGUCAUAGGCCAUGGAAACUAGGAGCACCACUUCGCUGCCAGUGAAGAAAUGAACAAAGAAAAUCUGGGCCAGGCAGGCAUCAGAAGAAAUAGUCUUGCGCUCAACCAGAAAGUCUGUAAUCAUCUUAAGGGUA [U37C A90G U131C]	0.69
GUUAACGGUCAUAGGCCAUGGAAACUAGGAGCACCACUUCGCUGCCAGUGAAGAAAUGAACAAAGAUAAUCUGGGCCAGGCAGGCAUCAAAAGAAAUAGUCCUGCGCUCAACCAGAAAGUCUGUAAUCAUUUUAAGGGUA [U37C A67U U102C]	2.07
GUUAACGGUCAUAGGCCAUGGAAACUAGGAGCACCACUUCGCUGCCAGUGAAGAAAUGAACAAAGUAAAUCUGGGCCAGGCAGGCAUCAAAAGAAAUAGCCUUGCGCUCAACCAGAAAGUCUGUAAUCAUUUUAAGGGUA [U37C A66U U100C]	1.87
GUUAACGGUCAUAGGCCAUGGAAACUAGGAGCACCACUUCGCUGCCAGUGAAGAAAUGAACAAAGAAAAUCUGGGCCAGGCAGGCAUCAAAAGAAAUAGUCUUGCGCUCAACCAGAAGGUCUGCAAUCAUUUUAAGGGUA [U37C A118G U124C]	1.81
GUUAACGGUCAUAGGCCAUGGAAACUAGGAGCACCACUUCGCUGCCAGUGAAGAAAUGAACAAAGAGAAUCUGGGCCAGGCUGGCAUCAAAAGAAAUAGUCUUGCGCUCAACCAGAAAGUCUGUAAUCAUUUUAAGGGUA [U37C A67G A82U]	0.28
GUUAACGGUCAUAGGCCAUGGAAACUAGGAGCACCACUUCGCUGCCAGUGAAGAAAUGAACAAAGAAAAUCUGGGCCAGGCAGGCAUCAGAAGAAAUAGUCUUGCGCCCAACCAGAAAGUCUGUAAUCAUUUUAAGGGUA [U37C A90G U108C]	0.02
GUUAACGGUCAUAGGCCAUGGAAACUAGGAGCACCACUUCGCUGCCAGUGAAGAAAUGAACAAAGAGAAUCUGGGCCAGGCAGGCAUCAAAAGAAAUAGUCUUGCGCUCAACCAGGAAGUCUGUAAUCAUUUUAAGGGUA [U37C A67G A116G]	0.71
GUUAACGGUCAUAGGCCAUGGAAACUAGGAGCACCACUUCGCUGCCAGUGAAGAAAUGAACAAAGAAAAUCUGGGCCAGGCAGGCAUCAAAAGAAAUAGUCUUGCGCUCGACCAGAGAGUCUGUAAUCAUUUUAAGGGUA [U37C A110G A117G]	0.02
GUUAACGGUCAUAGGCCAUGGAAACUAGGAGCACCACUUCGCUGCCAGUGAAGAAAUGAACAAAGAAAAUCUGGGCCAGGCGGGCAUCAAAAGAAAUAGUCUUGCGCUCAACCUGAAAGUCUGUAAUCAUUUUAAGGGUA [U37C A82G A114U]	0.07
GUUAACGGUCAUAGGCCAUGGAAACUAGGAGCACCACUUCGCUGCCAGUGAAGAAAUGAACAAAGAAGAUCUGGGCCAGGCAGGCUUCAAAAGAAAUAGUCUUGCGCUCAACCAGAAAGUCUGUAAUCAUUUUAAGGGUA [U37C A68G A86U]	1.35
GUUAACGGUCAUAGGCCAUGGAAACUAGGAGCACCACUUCGCUGCCAGUGAAGAAAUGAACAAAGAAAAUCUGGGCCAGGCAGGCAUCAAAAGAGAUAGUCUUGCGCUCAACCAGAAAGUCCGUAAUCAUUUUAAGGGUA [U37C A95G U122C]	2.67
GUUAACGGUCAUAGGCCAUGGAAACUAGGAGCACCACUUCGCUGCCAGUGAAGAAAUGAACAAAGAAAAUCUGGGCCAGGCAGGCAUCAAAAGAAGUAGUCUUGCGCUCAACCAGAAAGACUGUAAUCAUUUUAAGGGUA [U37C A96G U120A]	1.69
GUUAACGGUCAUAGGCCAUGGAAACUAGGAGCACCACUUCGCUGCCAGUGAAGAAAUGAACAAAGAAAAUCUGGGCCAGGCAGGCUUCAAGAGGAAUAAUCAUGCCCUCAACCAGAGAGUCUGUAAUCAUUUUAAGGGUA [U37C A86U A91G A94G G99A U102A G106C A117G]	0.01
GUUAACGGUCAUAGGCCAUGGAAACUAGGAGCACCACUUCGCUGCCAGUGAAGAAAUGAACAAAGAAAAUCUGGGCCAGGCAGGCGUCAAAAGAAGUAGUCUUGCGCUCAACCAGAAAGUCUGUAAUCAUUUUAAGGGUA [U37C A86G A96G]	1.81
GUUAACGGUCAUAGGCCAUGGAAACUAGGAGCACCACUUCGCUGCCAGUGAAGAAAUGAACAAAGAAAAUCUGGGCCAGGCGGGCAUCAAAAGAAAUAGUCUUGCGCUCAGCCAGAAAGUCUGUAAACAUUUUAAGGGUA [U37C A82G A111G U127A]	0.04
GUUAACGGUCAUAGGCCAUGGAAACUAGGAGCACCACUUCGCUGCCAGUGAAGAAAUGAACAAAGAGAAUCUGGGCCAGGCAGGCAUCAAAAGAAAUAGCCUUGCGCUCAACCAGAAAGACUGUAAUCAUUUUAAGGGUA [U37C A67G U100C U120A]	3
GUUAACGGUCAUAGGCCAUGGAAACUAGGAGCACCACUUCGCUGCCAGUGAAGAAAUGAACAAAGAAAAUCUGGGCCAGGCAGGCAUCAAGAGAAAUAGUCUUGCGCUCAACCAGAAAGUCUGUAACCAUUUUAAGGGUA [U37C A91G U127C]	1.13
GUUAACGGUCAUAGGCCAUGGAAACUAGGAGCACCACUUCGCUGCCAGUGAAGAAAUGAACAAAGAAAAUCUGGGCCAGGCAGGCAUCAAAAGAAAUAGUCUUGCGCUCAGCCAGAAAGUCUGUAAUCAUUCUAAGGGUA [U37C A111G U132C]	0.01
GUUAACGGUCAUAGGCCAUGGAAACUAGGAGCACCACUUCGCUGCCAGUGAAGAAAUGAACAAAGAAAAUCUGGGCCAGGCAGGCAUCAAAAGAAAUAGUCUUGCGCUCGACCAGAAAGUCUGUAAUCAUCUUAAGGGUA [U37C A110G U131C]	0.05
GUUAACGGUCAUAGGCCAUGGAAACUAGGAGCACCACUUCGCUGCCAGUGAAGAAAUGAACAAAGAAAAUCUGGGCCAGGCAGGCAUCAGAAGAGAUAGCCUUGCGCUCAACCAGAAAGUCUGUAAUCAUUUUAAGGGUA [U37C A90G A95G U100C]	1.59
GUUAACGGUCAUAGGCCAUGGAAACUAGGAGCACCACUUCGCUGCCAGUGAAGAAAUGAACAAAGAAAAUCUGGGCCAGGCAGGCAUCAAAGGAAAUAGUCUUGCGCUCGACCAGAAAGUCUGUAAUCAUUUUAAGGGUA [U37C A92G A110G]	0.1

Variant	self-cleavage
GUUAACGGUCAUAGGCCAUGGAAACUAGGAGCACCACUUCGCUGCCAGUGAAGAAAUGAACAAAGAAAAUCUGGGCCAGGCAGGCAUCAAAUGAAAUAGUCUUGCGCUCAACCAGAAAGUCUGUAAUCAUUUUAAGGGUU [U37C A92U A140U]	1.48
GUUAACGGUCAUAGGCCAUGGAAACUAGGAGCACCACUUCGCUGCCAGUGAAGAAAUGAACAAAGAAAGUCUGGGCCGGGCAGGCAUCAAAAGAAAUAGUCUUGCGCUCAACCAGAGAGUCUGUAAUCAUCUUAAGGGUA [U37C A69G A78G A117G U131C]	0.16
GUUAACGGUCAUAGGCCAUGGAAACUAGGAGCACCACUUCGCUGCCAGUGAAGAAAUGAACAAAGAAAAUCUGGGCCAGGCAGGCAUCAAAAGAAAUAGUCUUGCGCUCAACCAGAGAGUCCGUAAUCAUUUUAAGGGUA [U37C A117G U122C]	1.41
GUUAACGGUCAUAGGCCAUGGAAACUAGGAGCACCACUUCGCUGCCAGUGAAGAAAUGAACAAAGAAAAUCUGGGCCAGGCAGGCAUCAAAAGAAAUAGUCUUGCGCUCAACCAGAGAGUCUGUGAUCAUUUUAAGGGUA [U37C A117G A125G]	0.48
GUUAACGGUCAUAGGCCAUGGAAACUAGGAGCACCACUUCGCUGCCAGUGAAGAAAUGAACAAAGCAAAUCUGGGCCAGGCAGGCAUCAAAAGAAAUAGUCUUGCGCUCAACCAGGAAGUCUGUAAUCAUUUUAAGGGUA [U37C A66C A116G]	0.52
GUUAACGGUCAUAGGCCAUGGAAACUAGGAGCACCACUUCGCUGCCAGUGAAGAAAUGAACAAAGAAAAUCUGGGCCAGGCAGGCAUCAGAAGAAAUAGCCUUGCGCCCAACCAGAAAGUCUGUAAUCAUUUUAAGGGUA [U37C A90G U100C U108C]	0.1
GUUAACGGUCAUAGGCCAUGGAAACUAGGAGCACCACUUCGCUGCCAGUGAAGAAAUGAACAAAGAGAAUCUGGGCCAGGCAGGCAUCAAAAGAAAUAGACUUGCGCUCAACCAGAGAGUCUGUAAUCAUUUUAAGGGUA [U37C A67G U100A A117G]	1.06
GUUAACGGUCAUAGGCCAUGGAAACUAGGAGCACCACUUCGCUGCCAGUGAAGAAAUGAACAAAGAAAGUCUGAGCCAGGCAGGCAUCAAAAGAAAUAGUCUUGCGCUCAACCAGAAAGUCUGUAAUCAUUUUAAGGGUA [U37C A69G G74A]	0.15
GUUAACGGUCAUAGGCCAUGGAAACUAGGAGCACCACUUCGCUGCCAGUGAAGAAAUGAACAAUGAAAAUCUGGGCCAGGCAGGCAUCAAAAGAAAUAGUCUUGCGCUCAACCAGAAAGUCAGUAAUCAUUUUAGGGGUA [U37C A64U U122A A135G]	0.79
GUUAACGGUCAUAGGCCAUGGAAACUAGGAGCACCACUUCGCUGCCAGUGAAGAAAUGAACAAAGAAAAUCUGGGCCAGGCAGGCUUCAAAAGAAAUAGUCUUGCGCUCAACCAGAAAGUCUGUAAUCAUUUUAAGGGUC [U37C A86U A140C]	1.65
GUUAACGGUCAUAGGCCAUGGAAACUAGGAGCACCACUUCGCUGCCAGUGAAGAAAUGAACAAAGAAGAUCUGGGCCGGGCAGGCAUCAAAAGAAAUAGUCUUGCGCUCAACCAGAAAGUCUGUAAUCAUUUUAAGGGUA [U37C A68G A78G]	0.16
GUUAACGGUCAUAGGCCAUGGAAACUAGGAGCACCACUUCGCUGCCAGUGAAGAAAUGAACAAAGAAAAUCUGGGCCAGGCAGGCAUCAAAAGAAAUAGUCUUGCGCUCAUCCAGAAGGUCUGUAAUCAUUUUAAGGAUA [U37C A111U A118G G138A]	0.13
GUUAACGGUCAUAGGCCAUGGAAACUAGGAGCACCACUUCGCUGCCAGUGAAGAAAUGAACAAAGGAAAUCUGGGCCAGGCAGGCAUCAAAAGAAAUAGUCUCGCGCUCAACCAGAAAGUCUGUAAUCAUUUUAAGGGUA [U37C A66G U103C]	1.32
GUUAACGGUCAUAGGCCAUGGAAACUAGGAGCACCACUUCGCUGCCAGUGAAGAAAUGAACAAAGAAAAUCUGGGCCAGGCAGGCAUCAAAGGAAACAGUCUUGCGCUCAACCAGAAAGCCUGUAAUCAUUUUAAGGGUA [U37C A92G U97C U120C]	0.34
GUUAACGGUCAUAGGCCAUGGAAACUAGGAGCACCACUUCGCUGCCAGUGAAGAAAUGAACAAAGAAAAUCUGGGCCAGGCAGGCAUCAAAAGAAAUAGUCUUGCGCUCAACCAGGGAGUCUGUAGUCAUUUUAAGGGUA [U37C A116G A117G A126G]	0.65
GUUAACGGUCAUAGGCCAUGGAAACUAGGAGCACCACUUCGCUGCCAGUGAAGAAAUGAACAAAGAAGAUCUGGGCCAGGCAGGCAUCAAAAGAAAUAGUCUUGCGCUCGACCAGAAAGUCUGUAAUCAUUUUAAGGGUA [U37C A68G A110G]	0.12
GUUAACGGUCAUAGGCCAUGGAAACUAGGAGCACCACUUCGCUGCCAGUGAAGAAAUGAACAAAGAAAGUCUGGGCCAGGCAGGCACCAAAAGAAAUAGUCUUGCGCUCAACCAGAAAGUCGGUAAUCACUUUAAGGGUA [U37C A69G U87C U122G U130C]	1.02
GUUAACGGUCAUAGGCCAUGGAAACUAGGAGCACCACUUCGCUGCCAGUGAAGAAAUGAACAAAGAAAAUCUGGGCCAGGCAGGCAUCAAAAGAGAUAGUCUUGCGCUCAACCAGACGGUCUGUAAUCAUUUUAAGGGUA [U37C A95G A117C A118G]	0.19
GUUAACGGUCAUAGGCCAUGGAAACUAGGAGCACCACUUCGCUGCCAGUGAAGAAAUGAACAAAGAAAAUCUGGGCCAGGCAGGCGUCAAGAGAAAUAGUCUUGCGCUCAACCAGAAAGUCUGUAAUCAUUUUAAGGGUA [U37C A86G A91G]	0.13
GUUAACGGUCAUAGGCCAUGGAAACUAGGAGCACCACUUCGCUGCCAGUGAAGAAAUGAACAAAGAAAAUCUGGGCCUGGCAGGCAUCAAAAGAAAUAGUCUUGCGCUCAACCAGAAAGUCUGUAAUCAUUUUGAGGGUA [U37C A78U A134G]	0.22
